Measured values published in the supplement of paper PMC3334620.
The full ranking holds about 33,000 sequences; the median of “E-score (-0.5 to 0.5)” is about -0.013, and the highest 2% start at about 0.3. The list shows a part of the results.

Each sequence was assayed against T1, Msn1 (UniProt P22148) (assay: PBM E-score (8-mer binding enrichment) (E-score (-0.5 to 0.5)); higher = stronger / more preferred TF binding; most listed sequences are background and not binding sites). Settings: protein concentration: 200 nM; construct: GST-full length.
T1 sequence: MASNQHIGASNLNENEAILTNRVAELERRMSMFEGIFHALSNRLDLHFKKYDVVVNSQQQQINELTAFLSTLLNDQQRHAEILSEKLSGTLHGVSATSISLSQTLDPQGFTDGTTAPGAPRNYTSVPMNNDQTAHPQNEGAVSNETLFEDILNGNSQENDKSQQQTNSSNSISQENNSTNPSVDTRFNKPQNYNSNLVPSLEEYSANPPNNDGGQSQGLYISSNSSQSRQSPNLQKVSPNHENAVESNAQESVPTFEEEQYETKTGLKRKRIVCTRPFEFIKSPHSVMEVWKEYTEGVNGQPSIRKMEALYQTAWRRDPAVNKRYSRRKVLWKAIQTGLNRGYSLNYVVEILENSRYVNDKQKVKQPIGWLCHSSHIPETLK
How it was run: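 For each ungapped eight-base word taken together with its reverse complement, the Universal PBM Analysis Suite assigned an E-score. Binding data came from GST-tagged yeast transcription factors, applied at about 100-200 nM, on universal all-10-mer Agilent arrays made double-stranded by primer extension. Fluorescent anti-GST marked bound protein, and scans were normalised with masliner.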

Going from TGACGGCA to CAACAGAC, the “PBM E-score” value rises from -0.0952 to 0.171.

Compared with CACCGGTA, TATTCGAA is lower in “PBM E-score” value: 0.0943 for the first, -0.00052 for the second.

Compared with CAGCTGTA, AGGTTAGC is lower in “PBM E-score” value: -0.0452 for the first, -0.205 for the second.

Compared with AGAACACA, CGAACATA is higher in “PBM E-score” value: 0.0398 for the first, 0.128 for the second.

First: CTATGTGA
Second: GGATCCCA
The “PBM E-score” value of the first is lower: 0.0225 for the first, 0.0447 for the second.

First: TAGACCAA
Second: GCACCTAC
The “PBM E-score” value of the first is higher: -0.023 for the first, -0.194 for the second.

First: CAGTCAAG
Second: AGCGGCTA
The “PBM E-score” value of the first is higher: 0.0323 for the first, -0.0179 for the second.

Going from ATTGCGCC to AGACATAG, the “PBM E-score” value rises from 0.0139 to 0.32.

First: TCAATGAA
Second: ACTTGGAC
The “PBM E-score” value of the first is lower: 0.0871 for the first, 0.291 for the second.

Compared with GGGGGGAC, CCGCTGAG is higher in “PBM E-score” value: -0.218 for the first, 0.00458 for the second.

First: ACCTGCCG
Second: ACCTTCTC
The “PBM E-score” value of the first is higher: -0.116 for the first, -0.183 for the second.

Compared with CAGTGATG, AAAAAATC is higher in “PBM E-score” value: 0.0171 for the first, 0.105 for the second.

Going from GTCAGGCA to CGGATACG, the “PBM E-score” value rises from -0.0756 to 0.0284.

Going from ATCTACGG to ACAAAGAG, the “PBM E-score” value rises from -0.103 to -0.00747.

First: CAGTCGGC
Second: GTACTTGA
The “PBM E-score” value of the first is lower: -0.0676 for the first, 0.186 for the second.

Compared with CCTCGTAG, CGCGGCAA is higher in “PBM E-score” value: -0.154 for the first, -0.0728 for the second.

Going from ATTTCATA to ACTACATG, the “PBM E-score” value rises from 0.103 to 0.142.

Going from CGTTGCTA to AGTTCGTG, the “PBM E-score” value rises from -0.0977 to 0.0266.

Going from AGCTATCG to CTTAACGA, the “PBM E-score” value rises from -0.0821 to 0.159.

First: CGTGTTGA
Second: CCAGCCAA
The “PBM E-score” value of the first is higher: 0.022 for the first, -0.027 for the second.

Going from AGCTCACT to ACTACTAC, the “PBM E-score” value rises from -0.217 to 0.0357.

First: ATCGTCTC
Second: TGCATGCA
The “PBM E-score” value of the first is lower: 0.0417 for the first, 0.0527 for the second.

Going from AGCTCGTA to CGGGTGTA, the “PBM E-score” value falls from -0.00733 to -0.0647.

First: TACAGCGA
Second: GCTTTCCC
The “PBM E-score” value of the first is lower: -0.0582 for the first, 0.00071 for the second.

Compared with CTTGTACC, AAGGTTAC is lower in “PBM E-score” value: 0.286 for the first, -0.0549 for the second.

First: AAATGGCT
Second: ATTCAATG
The “PBM E-score” value of the first is lower: 0.0617 for the first, 0.142 for the second.

Compared with GCCCGGCA, ATGACGCA is higher in “PBM E-score” value: -0.169 for the first, 0.224 for the second.

First: CTCAACGA
Second: ATGGGAGG
The “PBM E-score” value of the first is higher: -0.0825 for the first, -0.115 for the second.

Going from CAGAGTCC to GAATCCTC, the “PBM E-score” value falls from 0.0634 to -0.289.

Going from CCCAGCTC to CGTGGCAC, the “PBM E-score” value rises from -0.155 to 0.0166.

Compared with ACGTACAA, CTTTAGGC is lower in “PBM E-score” value: 0.234 for the first, -0.131 for the second.

First: CCCTAGCC
Second: AAGGTCGG
The “PBM E-score” value of the first is lower: -0.261 for the first, -0.139 for the second.

Going from CCCACTAA to ACACATCT, the “PBM E-score” value rises from -0.085 to -0.0161.

Compared with AATAAGTG, AGCTTCTA is lower in “PBM E-score” value: 0.117 for the first, -0.0188 for the second.

Going from GGGCTGAC to AAGTAGAG, the “PBM E-score” value rises from -0.143 to 0.0056.

Going from ACGGGTAC to CTATTACC, the “PBM E-score” value falls from -0.067 to -0.165.

Compared with CCAGTGGC, TAAAATGA is higher in “PBM E-score” value: -0.143 for the first, 0.254 for the second.

Compared with CGTTCGAC, ACCGACTC is higher in “PBM E-score” value: -0.127 for the first, -0.0668 for the second.

Compared with AGAAATGA, TACCAGAA is lower in “PBM E-score” value: 0.232 for the first, 0.0567 for the second.

First: ATGACCCC
Second: CAAGTTTC
The “PBM E-score” value of the first is lower: -0.211 for the first, 0.0198 for the second.

Compared with ACCATGCT, CTAGCTGC is lower in “PBM E-score” value: -0.124 for the first, -0.171 for the second.

First: GGCTGCTA
Second: GACCAATA
The “PBM E-score” value of the first is lower: -0.246 for the first, 0.0382 for the second.

Compared with AGTGCCAT, CCGCCCTC is higher in “PBM E-score” value: -0.259 for the first, -0.231 for the second.

First: GCACTAGC
Second: CCGTCGGA
The “PBM E-score” value of the first is lower: -0.0522 for the first, 0.0394 for the second.

Going from AGAGCAGC to CAACTCGG, the “PBM E-score” value rises from -0.112 to -0.00815.

Compared with TCCATTCA, GACTGACC is lower in “PBM E-score” value: 0.203 for the first, -0.204 for the second.

Going from ACCCACAA to AGCGGTCG, the “PBM E-score” value falls from 0.126 to -0.294.

Going from ACCTCCCA to AAACTTGC, the “PBM E-score” value rises from -0.259 to -0.0981.

First: ATGTTCTA
Second: ATACGTCA
The “PBM E-score” value of the first is lower: -0.00786 for the first, 0.036 for the second.

First: CACGTACC
Second: ACCAGCCA
The “PBM E-score” value of the first is higher: -0.13 for the first, -0.14 for the second.

First: ATCGGCCA
Second: GACGACGC
The “PBM E-score” value of the first is lower: -0.117 for the first, -0.0748 for the second.

Going from CGTGTCAC to CCTTATTA, the “PBM E-score” value falls from 0.287 to 0.091.

Compared with AAGGCATT, ACCCACTC is lower in “PBM E-score” value: -0.229 for the first, -0.261 for the second.

Compared with CCCCAGAG, AATTGACT is higher in “PBM E-score” value: -0.243 for the first, 0.151 for the second.

First: CAGGACTC
Second: AAAGGTGT
The “PBM E-score” value of the first is higher: -0.0371 for the first, -0.0579 for the second.

Compared with GCCGAAGC, AGGTGCCG is higher in “PBM E-score” value: -0.0452 for the first, 0.0728 for the second.

Going from CAGTAAGC to CGCTAAAC, the “PBM E-score” value rises from -0.147 to -0.00264.

Going from ATGCCCAG to CCGTAGAG, the “PBM E-score” value rises from -0.142 to -0.0502.

First: GATAATAA
Second: CGGAAGTA
The “PBM E-score” value of the first is higher: 0.0741 for the first, 0.00789 for the second.

Compared with CGGGCATC, GATATTGC is higher in “PBM E-score” value: -0.274 for the first, 0.0823 for the second.

Going from CCCCACCG to AGCCCCAG, the “PBM E-score” value rises from -0.242 to -0.239.

Going from AATGAGCA to GAAAACCC, the “PBM E-score” value falls from 0.0647 to -0.0382.

Going from CGTTCTTC to GCGAAGAC, the “PBM E-score” value falls from 0.0728 to -0.0575.

Compared with GTTCACCA, AATTCATC is lower in “PBM E-score” value: -0.0926 for the first, -0.22 for the second.

Going from ACAGGTTA to CCCAACCA, the “PBM E-score” value rises from 0.0301 to 0.0322.

Going from ACGGGAGA to ATTCAAAC, the “PBM E-score” value rises from -0.106 to 0.125.

Compared with AGTAGTCG, TGCGTAAA is lower in “PBM E-score” value: 0.0474 for the first, -0.0602 for the second.

Going from ATGTCCAA to TATGCTCA, the “PBM E-score” value falls from 0.485 to 0.0929.

Going from GCTGTGAA to CCTTGCAA, the “PBM E-score” value falls from -0.0215 to -0.109.

Going from AGTCCGAA to ATAGTTGG, the “PBM E-score” value falls from 0.108 to -0.0884.

Going from AATAAGAG to CCCAAGGG, the “PBM E-score” value falls from 0.0171 to -0.22.

Compared with ACCGGGAC, GTGACGAA is lower in “PBM E-score” value: 0.126 for the first, -0.0509 for the second.

Compared with AGGAGTAC, CACCATTC is higher in “PBM E-score” value: -0.197 for the first, -0.122 for the second.

Going from ACCAATGA to AATTTTAT, the “PBM E-score” value rises from -0.0181 to 0.225.

Compared with ATTCGTTG, GATGTAAC is lower in “PBM E-score” value: 0.116 for the first, -0.0718 for the second.

First: GATGGGAC
Second: ATGGTCTG
The “PBM E-score” value of the first is higher: 0.14 for the first, -0.0695 for the second.

First: CATTCGAA
Second: GCTTAATA
The “PBM E-score” value of the first is higher: 0.0621 for the first, -0.0678 for the second.

Compared with ATGCCGTC, AAACGGGC is higher in “PBM E-score” value: -0.105 for the first, 0.082 for the second.

First: TCACTCAA
Second: ATATTTCG
The “PBM E-score” value of the first is lower: -0.148 for the first, 0.221 for the second.

Going from AAGTATGC to GCTTACCC, the “PBM E-score” value falls from -0.0157 to -0.191.

First: AGCTAAGC
Second: CAACTCCG
The “PBM E-score” value of the first is lower: -0.277 for the first, -0.0564 for the second.

First: ATCCGCAA
Second: AACGTAGA
The “PBM E-score” value of the first is higher: -0.00729 for the first, -0.0161 for the second.

Compared with CTCTTGCC, AACACTCC is higher in “PBM E-score” value: -0.0644 for the first, -0.0357 for the second.

First: AAAGCTCC
Second: CTCCGACC
The “PBM E-score” value of the first is lower: -0.127 for the first, -0.0669 for the second.

Going from AACGGGTG to CCCCGGCG, the “PBM E-score” value falls from 0.0124 to -0.35.

Going from ACCCGCTG to CTTATAAG, the “PBM E-score” value rises from -0.0703 to 0.102.
